{"source": "the supplement of paper PMC8728848", "binders": {"B1": {"name": "Morniga (Morus nigra) (protein)", "chain": "MAGTSTNTQTTGTSQTVEVGLWGGPGGNAWDDGSYTGIREINLSHGDAIGAFSVIYDLNGQPFTGPTHPGNEPSFKTVKITLDFPNEFLVSVSGYTGVLPRLATGKDVIRSLTFKTNKKTYGPYGKEEGTPFSLPIENGLIVGFKGRSGFVVDAIGVHLS"}}, "assay_in_all_cases": "glycan array binding signal (z-score within array); higher = stronger binding", "details_in_all_cases": "glycan notation: IUPAC condensed, linker removed", "key": {"[1]": {"target": "Fuc(a1-3)[Gal(b1-4)]GlcNAc(b1-4)Gal(b1-4)[Fuc(a1-3)]GlcNAc", "how_it_was_run": "(§1)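 Negative Z-scores can be read as non-binding. The Z-score is calculated within each array and then averaged across arrays of one protein sequence at different concentrations or buffers and across linkers. Arrays, 3228 in all, were curated from the Consortium for Functional Glycomics database and kept only where the protein sequence was available.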"}, "[2]": {"target": "Fuc(a1-3)[Gal(b1-4)]GlcNAc(b1-4)Gal(b1-4)[Fuc(a1-3)]GlcNAc(b1-4)Gal(b1-4)[Fuc(a1-3)]GlcNAc", "how_it_was_run": "as §1"}, "[3]": {"target": "Fuc(a1-3)[Gal(b1-4)]GlcNAc(b1-6)GalNAc", "how_it_was_run": "as §1"}, "[4]": {"target": "Fuc(a1-3)[Gal(b1-4)]GlcNAc(b1-6)[Gal(b1-3)GlcNAc(b1-3)]Gal(b1-4)Glc", "how_it_was_run": "as §1"}, "[5]": {"target": "Fuc(a1-3)[Gal(b1-4)]GlcNAc(b1-6)[Neu5Ac(a2-3)Gal(b1-3)]GalNAc", "how_it_was_run": "as §1"}, "[6]": {"target": "Fuc(a1-3)[Gal(b1-4)]GlcNAc6S", "how_it_was_run": "as §1"}, "[7]": {"target": "Fuc(a1-3)[Gal3S(b1-4)]GlcNAc", "how_it_was_run": "as §1"}, "[8]": {"target": "Fuc(a1-3)[Gal3S(b1-4)]GlcNAc6S", "how_it_was_run": "as §1"}, "[9]": {"target": "Fuc(a1-3)[GalNAc(b1-4)]GlcNAc", "how_it_was_run": "as §1"}, "[10]": {"target": "Fuc(a1-3)[GalNAc(b1-4)]GlcNAc6S", "how_it_was_run": "as §1"}, "[11]": {"target": "Fuc(a1-3)[GalNAc3S(b1-4)]GlcNAc", "how_it_was_run": "as §1"}, "Fuc(a1-4)GlcNAc": {"target": "Fuc(a1-4)GlcNAc", "how_it_was_run": "as §1"}, "Fuc(b1-3)GlcNAc": {"target": "Fuc(b1-3)GlcNAc", "how_it_was_run": "as §1"}, "Gal(a1-2)Gal": {"target": "Gal(a1-2)Gal", "how_it_was_run": "as §1"}, "Gal(a1-3)Gal": {"target": "Gal(a1-3)Gal", "how_it_was_run": "as §1"}, "Gal(a1-3)Gal(b1-3)GlcNAc": {"target": "Gal(a1-3)Gal(b1-3)GlcNAc", "how_it_was_run": "as §1"}, "[12]": {"target": "Gal(a1-3)Gal(b1-3)GlcNAc(b1-2)Man(a1-3)[Gal(a1-3)Gal(b1-3)GlcNAc(b1-2)Man(a1-6)]Man(b1-4)GlcNAc(b1-4)GlcNAc", "how_it_was_run": "as §1"}, "[13]": {"target": "Gal(a1-3)Gal(b1-3)GlcNAc(b1-3)GalNAc", "how_it_was_run": "as §1"}, "[14]": {"target": "Gal(a1-3)Gal(b1-3)GlcNAc(b1-6)GalNAc", "how_it_was_run": "as §1"}, "[15]": {"target": "Gal(a1-3)Gal(b1-3)[Fuc(a1-4)]GlcNAc(b1-2)Man(a1-3)[Gal(a1-3)Gal(b1-3)[Fuc(a1-4)]GlcNAc(b1-2)Man(a1-6)]Man(b1-4)GlcNAc(b1-4)GlcNAc", "how_it_was_run": "as §1"}, "Gal(a1-3)Gal(b1-4)Glc": {"target": "Gal(a1-3)Gal(b1-4)Glc", "how_it_was_run": "as §1"}, "Gal(a1-3)Gal(b1-4)GlcNAc": {"target": "Gal(a1-3)Gal(b1-4)GlcNAc", "how_it_was_run": "as §1"}, "[16]": {"target": "Gal(a1-3)Gal(b1-4)GlcNAc(b1-3)GalNAc", "how_it_was_run": "as §1"}, "[17]": {"target": "Gal(a1-3)Gal(b1-4)GlcNAc(b1-6)GalNAc", "how_it_was_run": "as §1"}, "[18]": {"target": "Gal(a1-3)Gal(b1-4)[Fuc(a1-3)]GlcNAc", "how_it_was_run": "as §1"}, "[19]": {"target": "Gal(a1-3)Gal(b1-4)[Fuc(a1-3)]GlcNAc(b1-2)Man(a1-3)[Gal(a1-3)Gal(b1-4)[Fuc(a1-3)]GlcNAc(b1-2)Man(a1-6)]Man(b1-4)GlcNAc(b1-4)GlcNAc", "how_it_was_run": "as §1"}, "Gal(a1-3)GalNAc": {"target": "Gal(a1-3)GalNAc", "how_it_was_run": "as §1"}, "[20]": {"target": "Gal(a1-3)[Gal(a1-4)]Gal(b1-4)GlcNAc", "how_it_was_run": "as §1"}, "[21]": {"target": "Gal(a1-4)Gal(b1-3)GlcNAc(b1-2)Man(a1-3)[Gal(a1-4)Gal(b1-3)GlcNAc(b1-2)Man(a1-6)]Man(b1-4)GlcNAc(b1-4)GlcNAc", "how_it_was_run": "as §1"}, "Gal(a1-4)Gal(b1-4)Glc": {"target": "Gal(a1-4)Gal(b1-4)Glc", "how_it_was_run": "as §1"}, "Gal(a1-4)Gal(b1-4)GlcNAc": {"target": "Gal(a1-4)Gal(b1-4)GlcNAc", "how_it_was_run": "as §1"}, "[22]": {"target": "Gal(a1-4)Gal(b1-4)GlcNAc(b1-2)Man(a1-3)[Gal(a1-4)Gal(b1-4)GlcNAc(b1-2)Man(a1-6)]Man(b1-4)GlcNAc(b1-4)GlcNAc", "how_it_was_run": "as §1"}, "[23]": {"target": "Gal(a1-4)Gal(b1-4)GlcNAc(b1-3)Gal(b1-4)Glc", "how_it_was_run": "as §1"}, "Gal(a1-4)GlcNAc": {"target": "Gal(a1-4)GlcNAc", "how_it_was_run": "as §1"}, "Gal(a1-6)Glc": {"target": "Gal(a1-6)Glc", "how_it_was_run": "as §1"}, "Gal(b1-2)Gal": {"target": "Gal(b1-2)Gal", "how_it_was_run": "as §1"}, "Gal(b1-3)Gal": {"target": "Gal(b1-3)Gal", "how_it_was_run": "as §1"}, "Gal(b1-3)Gal(b1-4)GlcNAc": {"target": "Gal(b1-3)Gal(b1-4)GlcNAc", "how_it_was_run": "as §1"}, "[24]": {"target": "Gal(b1-3)Gal(b1-4)GlcNAc(b1-2)Man(a1-3)[Gal(b1-3)Gal(b1-4)GlcNAc(b1-2)Man(a1-6)]Man(b1-4)GlcNAc(b1-4)GlcNAc", "how_it_was_run": "as §1"}, "Gal(b1-3)GalNAc": {"target": "Gal(b1-3)GalNAc", "how_it_was_run": "as §1"}, "[25]": {"target": "Gal(b1-3)GalNAc(a1-3)[Fuc(a1-2)]Gal(b1-4)Glc", "how_it_was_run": "as §1"}, "[26]": {"target": "Gal(b1-3)GalNAc(a1-3)[Fuc(a1-2)]Gal(b1-4)GlcNAc", "how_it_was_run": "as §1"}, "[27]": {"target": "Gal(b1-3)GalNAc(b1-3)Gal(a1-4)Gal(b1-4)Glc", "how_it_was_run": "as §1"}, "[28]": {"target": "Gal(b1-3)GalNAc(b1-4)Gal(b1-4)Glc", "how_it_was_run": "as §1"}, "[29]": {"target": "Gal(b1-3)GalNAc(b1-4)[Neu5Ac(a2-3)]Gal(b1-4)Glc", "how_it_was_run": "as §1"}}, "note": "The other results are listed elsewhere or left out.", "data": [{"binder": "B1", "values": [{"measurement": "glycan array binding signal (z-score)", "setting": "[1]", "value": -0.338}, {"measurement": "glycan array binding signal (z-score)", "setting": "[2]", "value": -0.343}, {"measurement": "glycan array binding signal (z-score)", "setting": "[3]", "value": -0.317}, {"measurement": "glycan array binding signal (z-score)", "setting": "[4]", "value": -0.34}, {"measurement": "glycan array binding signal (z-score)", "setting": "[5]", "value": -0.305}, {"measurement": "glycan array binding signal (z-score)", "setting": "[6]", "value": -0.337}, {"measurement": "glycan array binding signal (z-score)", "setting": "[7]", "value": -0.342}, {"measurement": "glycan array binding signal (z-score)", "setting": "[8]", "value": -0.324}, {"measurement": "glycan array binding signal (z-score)", "setting": "[9]", "value": -0.324}, {"measurement": "glycan array binding signal (z-score)", "setting": "[10]", "value": -0.335}, {"measurement": "glycan array binding signal (z-score)", "setting": "[11]", "value": -0.322}, {"measurement": "glycan array binding signal (z-score)", "setting": "Fuc(a1-4)GlcNAc", "value": -0.336}, {"measurement": "glycan array binding signal (z-score)", "setting": "Fuc(b1-3)GlcNAc", "value": -0.329}, {"measurement": "glycan array binding signal (z-score)", "setting": "Gal(a1-2)Gal", "value": -0.335}, {"measurement": "glycan array binding signal (z-score)", "setting": "Gal(a1-3)Gal", "value": -0.337}, {"measurement": "glycan array binding signal (z-score)", "setting": "Gal(a1-3)Gal(b1-3)GlcNAc", "value": -0.345}, {"measurement": "glycan array binding signal (z-score)", "setting": "[12]", "value": 0.162}, {"measurement": "glycan array binding signal (z-score)", "setting": "[13]", "value": -0.343}, {"measurement": "glycan array binding signal (z-score)", "setting": "[14]", "value": -0.34}, {"measurement": "glycan array binding signal (z-score)", "setting": "[15]", "value": 0.355}, {"measurement": "glycan array binding signal (z-score)", "setting": "Gal(a1-3)Gal(b1-4)Glc", "value": -0.338}, {"measurement": "glycan array binding signal (z-score)", "setting": "Gal(a1-3)Gal(b1-4)GlcNAc", "value": -0.338}, {"measurement": "glycan array binding signal (z-score)", "setting": "[16]", "value": -0.34}, {"measurement": "glycan array binding signal (z-score)", "setting": "[17]", "value": -0.328}, {"measurement": "glycan array binding signal (z-score)", "setting": "[18]", "value": -0.335}, {"measurement": "glycan array binding signal (z-score)", "setting": "[19]", "value": 0.347}, {"measurement": "glycan array binding signal (z-score)", "setting": "Gal(a1-3)GalNAc", "value": -0.336}, {"measurement": "glycan array binding signal (z-score)", "setting": "[20]", "value": -0.34}, {"measurement": "glycan array binding signal (z-score)", "setting": "[21]", "value": 2.59}, {"measurement": "glycan array binding signal (z-score)", "setting": "Gal(a1-4)Gal(b1-4)Glc", "value": -0.333}, {"measurement": "glycan array binding signal (z-score)", "setting": "Gal(a1-4)Gal(b1-4)GlcNAc", "value": -0.34}, {"measurement": "glycan array binding signal (z-score)", "setting": "[22]", "value": 2.47}, {"measurement": "glycan array binding signal (z-score)", "setting": "[23]", "value": -0.341}, {"measurement": "glycan array binding signal (z-score)", "setting": "Gal(a1-4)GlcNAc", "value": -0.324}, {"measurement": "glycan array binding signal (z-score)", "setting": "Gal(a1-6)Glc", "value": -0.329}, {"measurement": "glycan array binding signal (z-score)", "setting": "Gal(b1-2)Gal", "value": -0.336}, {"measurement": "glycan array binding signal (z-score)", "setting": "Gal(b1-3)Gal", "value": -0.333}, {"measurement": "glycan array binding signal (z-score)", "setting": "Gal(b1-3)Gal(b1-4)GlcNAc", "value": -0.335}, {"measurement": "glycan array binding signal (z-score)", "setting": "[24]", "value": 4.04}, {"measurement": "glycan array binding signal (z-score)", "setting": "Gal(b1-3)GalNAc", "value": -0.334}, {"measurement": "glycan array binding signal (z-score)", "setting": "[25]", "value": -0.338}, {"measurement": "glycan array binding signal (z-score)", "setting": "[26]", "value": -0.334}, {"measurement": "glycan array binding signal (z-score)", "setting": "[27]", "value": -0.345}, {"measurement": "glycan array binding signal (z-score)", "setting": "[28]", "value": -0.337}, {"measurement": "glycan array binding signal (z-score)", "setting": "[29]", "value": -0.338}]}]}
